Results on one molecule are retold here after patent publication US20200308274A1.

The target in experiment [1] is liraglutide fibrils (human) (UniProt P01275). The experiment is described as follows: ELISA Assay (VI-B); 1.000 uM fibrils in 1600 uM soluble liraglutide; 50 nM antibody. (An ELISA detects its analyte on a solid surface through an enzyme-linked reagent.)
The target is the same in experiment [2]. Kind of experiment: ELISA Assay (VI-B); 2.500 uM fibrils in 1600 uM soluble liraglutide; 50 nM antibody.
Experiment [3] shares this target. Kind of experiment: ELISA Assay (VI-B); 0.025 uM fibrils in 1600 uM soluble liraglutide; 50 nM antibody.
For experiment [4] the target is unchanged. The experiment is described as follows: ELISA Assay (III-B); row labelled 1 uM; two-step purified antibody; raw signal, mean of 3.
Experiment [5] concerns the target soluble liraglutide (human) (UniProt P01275). The experiment is described as above.
The target in experiment [6] is liraglutide fibrils (human) (UniProt P01275). The experiment is described as follows: ELISA Assay (III-B); row labelled 3 uM; two-step purified antibody; raw signal, mean of 3.
The target of experiment [7] is soluble liraglutide (human) (UniProt P01275). The description is as above.
In experiment [8] the target is liraglutide fibrils (human) (UniProt P01275). The experiment is described as follows: ELISA Assay (III-B); row labelled 10 uM; two-step purified antibody; raw signal, mean of 3.
Experiment [9] has as its target soluble liraglutide (human) (UniProt P01275). Described as above.
In experiment [10] the target is liraglutide fibrils (human) (UniProt P01275). Kind of experiment: ELISA Assay (III-B); row labelled 30 uM; two-step purified antibody; A450 ratio, mean of 3.
The target is the same in experiment [11]. Kind of experiment: ELISA Assay (III-B); row labelled 0.01 uM; two-step purified antibody; raw signal, mean of 3.
Experiment [12] concerns the target soluble liraglutide (human) (UniProt P01275). The description is as above.
In experiment [13] the target is liraglutide fibrils (human) (UniProt P01275). Kind of experiment: ELISA Assay (III-B); row labelled 0.03 uM; two-step purified antibody; raw signal, mean of 3.
In experiment [14] the target is soluble liraglutide (human) (UniProt P01275). The experiment is described as above.
Experiment [15] has as its target liraglutide fibrils (human) (UniProt P01275). The experiment is described as follows: ELISA Assay (VI-B); 10 uM fibrils in 1600 uM soluble liraglutide; 50 nM antibody; average of 4 experiments.
For experiment [16] the target is unchanged. The experiment is described as follows: ELISA Assay (VI-B); 25 uM fibrils in 1600 uM soluble liraglutide; 50 nM antibody; average of 4 experiments.
For experiment [17] the target is unchanged. The experiment is described as follows: ELISA Assay (VI-B); 2.5 uM fibrils in 1600 uM soluble liraglutide; 50 nM antibody; average of 4 experiments.

Values joined by “and” are separate entries in the source; they are usually repeats but may differ in a detail not shown here. Equal entries are not always repeated.

B1: Antibody M (Fc fusion)
scFv: DIQMTQSPSSLSASVGDRVTITCRASQSVAAAVAWYQQKPDKAPKLLIYSASFLYSGVPSRFSGSRSGTDFTLTISSLQPEDFATYYCQQHNTYPPTFGQGTKVEIKRTSPNSASHSGSAPQTSSAPGSQEVQLVESGGGLVQPGGSLRLSCAASGFNIKDTYIHWVRQAPGKGLEWVARISPSSGSTRYAGSVKGRFTISADTSKNTAYLQMNSLRAEDTAVYYCAREWYEASYYDWFDYFDFSDYWGQGTLVTVSSAAA[human IgG1 Fc not written out]GSHHHHHHKLDYKDHDGDYKDHDIDYKDDDDK
Regarding B1, the Specificity Ratio (liraglutide fibril in mixture/soluble liraglutide) in experiment [1] is 46.6; in [2], 48.3; in experiment [3], 18.2 and 13.7 and 12.8 (2×); in [15], 48.7; in experiment [16] it was 46.6; in experiment [17], 48.3. Besides, the antibody binding signal (absorbance at 450 nm) worked out at 0.15 in [4]; 0.05 in [5]; 0.3 in experiment [6]; 0.05 in experiment [7]; 0.73 in experiment [8]; 0.06 in [9]. Further, the antibody binding signal (absorbance at 450 nm) in experiment [11] is 0.06; in experiment [12] it was 0.05; in experiment [13], 0.07; in experiment [14] it was 0.04. Moreover, in experiment [10], the Liraglutide fibril specificity (Liraglutide fibril/Liraglutide monomer) came to 16.3.
